The supplement of paper PMC10126150
Sequences with one replicate were seen in a single cluster, so their values are uncertain.

system: ATP; assay: switch fluorescence ratio, 500 uM ATP over buffer (Cy3 cluster intensity, sum of 5 cycles each) (fold (ratio)); higher = stronger signal-on switching upon ATP binding; sequences stand for … in TCGTCGGCAGCGTCAGATGTGTATAAGAGACAGTTTTTTTTTTTTTTTTTTTTTTTTT…TC; settings: aptamer strand: ATP DNA aptamer (quencher-CACCTGGGGGAGTATTGCGGAGGAAGG + anchor), 100 nM annealed; ATP concentration: 500 uM; one replicate
How it was run: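 Between each of five buffer/ATP cycles, the flow-cell was stripped with NaOH and re-annealed. Each cycle imaged Cy3-labelled switching-strand clusters, annealed to 100 nM quencher-labelled ATP aptamer on a modified Illumina MiSeq flow-cell, first in selection buffer and then after 15 min with 500 uM ATP at 22 °C. The fluorescence ratio is summed target-cycle over summed buffer-cycle Cy3 intensity per cluster, averaged per switch-domain sequence, with clusters outside 100-1000 RFU excluded.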
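Also: ATP exposure 15 min at 22 °C before imaging.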

Sequence | switch fluorescence ratio
TTGGGATCCT | 1.03
ATTACGTAAT | 1.03
AAGACTGGAT | 1.01
TCAGAACCGC | 1.13
GTCTGCAGTC | 1.09
CGATTCGATA | 0.995
GTTATGTTAA | 0.99
GAATTGGTGG | 0.974
TAGAAAGAAT | 1.02
ACAGTTAACA | 1.01
AGCGGCAATC | 4.32
CAGGATAATC | 1.34
CCTGAGAAAC | 1.04
CACCATACGC | 1.34
ACCGTGGGCT | 0.96
CCTCATGGCC | 1.14
TATATTGTTT | 1.02
AGAATTGTCT | 0.974
GGGGGACCCG | 0.975
TTACACCCGC | 1.12
TTGGACCTTC | 1.52
ATAGTAAGAT | 0.965
CTATGCTGCG | 1.01

Sequence | switch fluorescence ratio
TGTCGGATGA | 1.05
TGAGTAACAT | 0.931
TTAATATGTC | 1.03
CCTTAGGGG | 1.06
AGCTACAAGC | 1.05
TTTTGTCACC | 0.988
TAGCCTTAAA | 0.95
GAAATGGAGA | 1.01
TTAGCTATGT | 0.997
ATAGATGGGA | 0.994
AGGGTCCGTC | 0.983
GAGTCTACGT | 0.989
GTGAGTAAGA | 1.02
CGGCACCGGT | 1.63
AAAGCCTAAC | 1.18
GACATAAGA | 0.983
AACTCTCCAT | 1
TTGGAACCAC | 1.09
CGGCTGCTGT | 0.982
GTTCTAGTTG | 0.94
TAGCCCCCG | 1.04
CGGCTGCACG | 0.995
GGCCCCGGGC | 0.997

Sequence | switch fluorescence ratio
AGGTTGGCGA | 1.02
CTGATTAGCA | 1.03
ATGCTAGGCA | 0.975
TCAGAGGTGC | 1.05
CTTACCGGGG | 1.01
ACAGATTAGG | 1.01
TTAAATAGG | 0.988
GAACTATAAC | 1.05
CAGTGCATGA | 0.981
GTTTTAGAAG | 0.949
AATTGGATCA | 0.984
AGACTAAATC | 1.01
TAGAGCGGAT | 1
TGCAGCCCGG | 1.05
CAGTGTGCTA | 1.04
TGACTAACAC | 1.18
GTGTATTT | 0.98
CGCTCGGCGT | 0.985
GAAGCAGTT | 1.04
GCTTGGCTCA | 0.989
CCATATCATG | 1.01
TGAATACTAC | 1.16
TATAGACTCG | 0.977

Sequence | switch fluorescence ratio
CTATCTGTT | 0.985
TCACTTGGCC | 1.01
AGCCAAGTTG | 1.04
AAAAGGTACG | 1.01
TTGGTATGTC | 0.979
TTGATTTGGG | 0.972
GTTCCTTCTC | 1.39
CACTCCAATC | 1.54
GGAGGCTCTT | 1.03
TGACCCGCGC | 2.14
AACGCGTGTG | 1.01
TGGGTTGCGC | 1.01
AAAAAACGGA | 0.957
CTCGGTGCTT | 1.02
GCAGTAACTA | 1.04
ATACTAGTTG | 0.95
TTGAAGAGAA | 0.999
GTTTTAACTC | 1
TGGACCTCAC | 1.26
GATAGGACTG | 0.903
ACTTATTGAT | 0.96
GCTAAGGGGA | 0.966
CGCGTGTGTT | 1.05

Sequence | switch fluorescence ratio
CGGGTGGAAC | 0.969
TCGGTGTAGC | 0.997
CAGCAGCAGG | 1.65
GGAATGCGAA | 1.06
TTGTTCTGA | 0.995
TTCCGCCGTC | 1.06
AGCTGATGCA | 1.01
AGTCGCCTGC | 1.19
TACACACAAT | 1.12
ACAGGCGTC | 1.04
GCTCTCTATG | 0.978
TTACCTTCCC | 3.05
GGAGCGCGAG | 1.06
GTACTGAACT | 1.28
TCTTAAACCA | 0.988
GCGCACCCTG | 1.01
AACGGATCCG | 0.965
GATTCGTAGC | 1.02
GGTAAGGGGT | 1.21
TTTTCCAC | 1.01
GTGGCGTTGC | 0.998
TCTCATGACA | 1.04
GCGAGACT | 1.17

Sequence | switch fluorescence ratio
TGACCGGGCG | 0.956
ATCGGAAAAC | 1.03
GGGTGTGAGC | 1.03
TGCGGTGGGA | 1.01
ACAAGCTCCG | 0.972
TAAACGAACT | 1.24
AATAAGTATG | 1
GGGAGATG | 1
TTCGTGTACT | 1.08
CAGAGTGAGC | 1.06
TAGGAAAAAC | 1.02
ATCCGACTTA | 1.03
GGATCTTCAT | 1.02
ATATTCACTG | 1.02
ATCGCTG | 0.943
TAGGGTCTTA | 1.02
TAGTTGGTCC | 1.01
AATAGAAATT | 0.949
AAGGTGAGCA | 1.01
TAGACACGGG | 1.16
TTAATCGAGC | 1.05
CTCAAACAGC | 1.1
GGGCACTTAT | 1.05

Sequence | switch fluorescence ratio
GACATAGGAT | 0.937
GCTACCGGGA | 1
TGTGTAACCC | 0.966
GACAACTCGC | 1.03
AAAAGGGATC | 0.991
TATCAGTGAA | 0.984
TATGTCGGTG | 0.989
TCATTGGATG | 0.994
CATAGACAGG | 1.05
TGTGAGGCCT | 1.08
CTATTATGCA | 0.997
GCTTCGGCTC | 1.02
GCTCTAGTAG | 1.01
GAACTAGTCT | 1.05
GGGACAGTTC | 1
AAGACTTTAG | 1
GTGTTCAGTG | 1.02
GATGGTTAGG | 1.04
CGCTAGTTAG | 1.01
